According to PubChem BioAssay AID686978 (National Center for Advancing Translational Sciences (NCATS), 2013):
The whole screen tested about 420,000 compounds, of which about 64,000 (15%) were called active. Inconclusive means that the source gave no clear call. Such entries were picked first, then a sample of the others. Calls follow the shape of the dose curve; as a rule, active = well fitted inhibition curve with a large enough effect; inconclusive = small, poorly fitted or top-dose-only effect; inactive = flat fitted curve, though single readings scatter. No potency is given beside an inconclusive call; the fits are too rough.
% is scaled to controls: 0 for no effect and ±100 for the full control effect; potency is read from the fitted curve at half-maximal effect; tags tell the direction and shape of the fitted curve.

Assay: qHTS for Inhibitors of human tyrosyl-DNA phosphodiesterase 1 (TDP1): qHTS in cells in absence of CPT; also: nearly all actives have a fitted effect of over 55% in size
Conditions: DT40 Tdp1-/- hTDP1 cells, no CPT, ATP luminescence, 48 h; activity change, negative = growth inhibition: at 46.2 µM (top of the series) unless noted
Method in brief: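 Chicken DT40 Tdp1-/- cells complemented with human TDP1, screened without camptothecin (DMSO vehicle only), 400 cells/well. Compounds pin-transferred, cells incubated at 37 °C for at least 48 hr. Growth read as ATP-dependent luminescence (CellTiter-Glo, 30 min at RT).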
For `Cc1ccc(N2CC(C(=O)N3CCC(C(=O)Nc4ccc(Br)cc4)CC3)CC2=O)cc1` (stereo unspecified), the Potency was inconclusive [inhibitor, single point]. In the case of `COC(=O)[C@]12CCCCC=C1N(Cc1ccco1)C(=O)[C@H](CC(=O)NCc1ccccc1)C2`, the Potency is reported as “inactive”. With `COc1ccc(N2CCN(C3CCCN(C(=O)C4=C(C)OCCO4)C3)CC2)cc1` (stereo unspecified) the Potency was “inactive”. With `O=c1c(C(c2ccc(F)cc2)c2c(O)nc3n(c2=O)CCCS3)c(O)nc2n1CCCS2` the Potency was “inactive”. In the case of `Cc1cccc(N(C)C(=O)c2cc(S(=O)(=O)N3CCc4ccccc43)cn2C)c1`, the Potency is reported as inconclusive [inhibitor, single point]. For `CCOc1ccc(-c2cc(C(=O)Nc3ccc(C)c(NS(C)(=O)=O)c3)[nH]n2)c(C)c1`, the Potency was inconclusive [inhibitor, single point]. With `COc1cccc(C(=O)Nc2ccncc2)c1OC` the Potency was inconclusive [inhibitor, single point]. In the case of `CC(C)(C)n1nc2c(c1NC(=O)COc1ccc(Cl)cc1)CS(=O)(=O)C2`, the Potency is reported as “inactive”. In the case of `O=c1c(S(=O)(=O)c2ccccc2)cn(Cc2ccc(F)cc2)c2cc(N3CCCCC3)c(F)cc12`, the Potency is reported as inconclusive [inhibitor, partial curve]. For `O=C(N/N=C/c1ccc(Br)o1)c1cc([N+](=O)[O-])cc([N+](=O)[O-])c1`, the Potency was inconclusive [inhibitor, single point]. For `CNC(=S)N(CCc1cccc(C)c1)Cc1cc2cc(OC)c(OC)cc2[nH]c1=O`, the Potency was inconclusive [inhibitor, single point]. In the case of `Cc1nc(NS(=O)(=O)c2ccccc2)sc1C(=O)N/N=C/c1ccccc1`, the Potency is reported as “inactive”. For `CC1(OC(=O)CCc2ccccc2)C(=O)C=C2C=C(c3ccc(C#N)cc3)N(CCc3c[nH]c4ccccc34)C=C2C1=O` (stereo unspecified), the Potency was “inactive”. For `CCOc1ccc(CCNC(=O)CN(c2ccc(C)cc2)S(=O)(=O)N(C)C)cc1OCC`, the Potency was inconclusive [inhibitor, partial curve]. For `COC(=O)c1sccc1NC(=O)CSc1ccccc1NS(=O)(=O)c1ccccc1Cl`, the Potency was inconclusive [inhibitor, single point]. For `Cc1ccc(-c2onc(C)c2C)cc1S(=O)(=O)NC1CCCCC1`, the Potency was active: 25.9 µM. For `COC(=O)c1nnn(CC(=O)Nc2ccc(Br)c(C)c2)c1N`, the Potency was “inactive”. For `O=c1c(-c2c(O)cc(O)c3c2O[C@H](c2ccc(O)cc2)CC3)c(-c2ccc(O)cc2)oc2cc(O)cc(O)c12`, the Potency was active: 5.17 µM. For `Cc1cc(Nc2ncc(Cl)cc2Cl)n[nH]1`, the Potency was inconclusive [inhibitor, single point]. For `CCOc1cccc2sc(NC(=O)CCS(=O)(=O)c3ccccc3)nc12`, the Potency was active: 8.2 µM. With `Cc1ccc(S(=O)(=O)N2CCCCC2CCNC(=O)C(=O)NCc2ccncc2)cc1` (stereo unspecified) the Potency was inconclusive [inhibitor, partial curve]. For `CCC(Sc1nc2ccncc2[nH]1)C(=O)Nc1ccc(C)c(Cl)c1` (stereo unspecified), the activity change, negative = growth inhibition was inconclusive: -31% [inhibitor]. With `CCN(CC)/C(N)=N/c1nc(C)cc(C)n1` the Potency was “inactive”. For `CC(Sc1ccccc1F)C(=O)Nc1cccc(S(=O)(=O)N2CCOCC2)c1` (stereo unspecified), the Potency was inconclusive [inhibitor, single point]. In the case of `Cc1ccc(/C=C2/SC(=S)N(CC(=O)Nc3ncc(Cc4ccc(C)cc4)s3)C2=O)cc1`, the Potency is reported as active: 11.6 µM. For `CCN(CC)C(=O)C1CCCN(c2ncnc3c2cnn3-c2ccc(Cl)cc2)C1` (stereo unspecified), the Potency was active: 18.4 µM. With `Cc1c(C(=O)Nc2ccccc2)c2ccc(C(F)(F)F)cc2n1O` the Potency was inconclusive [inhibitor, single point]. In the case of `C=CCN([C@@H](CC(C)C)C(=O)OC)S(=O)(=O)N(CC=C)[C@@H](CC(C)C)C(=O)OC`, the Potency is reported as active: 17.8 µM. In the case of `COCCCNC(=O)Cn1cc(C(=O)C2CC2)c2ccccc21`, the Potency is reported as “inactive”. In the case of `COc1ccc(N2CCN(C(=O)c3c(C)nn(-c4ccccc4)c3C)CC2)cc1`, the Potency is reported as inconclusive [inhibitor, single point]. With `CC(C)(C)N=Cc1cc(-c2ccccc2)sc1O` the Potency was “inactive”. In the case of `O=C(NC(c1ccc(-c2ccccc2)cc1)c1cnccn1)C1CCN(CCN2C(=O)c3ccccc3C2=O)CC1` (stereo unspecified), the Potency is reported as active: 23.1 µM. With `C[C@H]1C[C@@H]2[C@H]([C@@H](O)C[C@@]3(C)[C@H]2CC[C@]3(O)C(=O)CO)[C@@]2(C)C=CC(=O)C=C12` the Potency was “inactive”. For `COc1ccc(Nc2ccc(S(=O)(=O)N3CCCCC3)cc2[N+](=O)[O-])cc1Cl`, the Potency was inconclusive [inhibitor, single point]. With `O=C(COC(=O)CC1Sc2ccccc2NC1=O)NCc1ccccc1` (stereo unspecified) the Potency was “inactive”. For `O=C(C1CCCN(S(=O)(=O)c2cnc[nH]2)C1)N1CCN(c2ccc(Cl)cc2)CC1` (stereo unspecified), the Potency was active: 18.4 µM. With `O=C(Nc1cccc2c1CCCC2)C1CCCN(S(=O)(=O)c2cccc3nonc23)C1` (stereo unspecified) the Potency was inconclusive [inhibitor, single point]. For `COc1cccc(N(CC(=O)NC2CC3CCC2C3)S(=O)(=O)c2ccccc2)c1` (stereo unspecified), the Potency was inconclusive [inhibitor, partial curve]. In the case of `CCOc1ccc(Cl)cc1-c1cc(C(=O)NCc2ccccc2OC)[nH]n1`, the Potency is reported as active: 18.4 µM. For `Clc1cnc(Nc2cccnc2)c(Cl)c1`, the Potency was “inactive”. In the case of `CCC/C(=N\NC(=O)C1CCCC1)c1ccccc1`, the Potency is reported as “inactive”. For `Cc1cc(C)cc(C(=O)Oc2cc(C)[nH]c(=O)c2[N+](=O)[O-])c1`, the Potency was “inactive”. For `C=C1CCN(C(C(=O)OC)C(C)C)S(=O)(=O)c2ccccc21` (stereo unspecified), the Potency was inconclusive [inhibitor, single point]. In the case of `CN(C(=O)c1cnc2n(c1=O)CCS2)C1CCCCC1`, the Potency is reported as inconclusive [inhibitor, single point]. For `Cc1nc(C)n(CC(=O)N2CCOc3ccc(CN4CCN(C)C[C@@H]4c4ccccc4)cc3C2)n1`, the Potency was “inactive”. For `CCOC(=O)C(NC(=O)c1ccc(OC)cc1)(N1CCCC1=O)C(F)(F)F` (stereo unspecified), the Potency was inconclusive [inhibitor, single point].
